PMC4336329 (PLoS ONE, 2015)
About 2,200 (0.71%) of roughly 310,000 compounds showed an effect of 50% or more. The effect is printed as a negative number. The list shows a part of the results.

Target: human ether-à-go-go-related gene (hERG) potassium channel (human, UniProt Q12809)
Assay: primary screen, population patch clamp on CHO cells stably expressing hERG

Sequence of human ether-à-go-go-related gene (hERG) potassium channel (Q12809 whole entry, looked up): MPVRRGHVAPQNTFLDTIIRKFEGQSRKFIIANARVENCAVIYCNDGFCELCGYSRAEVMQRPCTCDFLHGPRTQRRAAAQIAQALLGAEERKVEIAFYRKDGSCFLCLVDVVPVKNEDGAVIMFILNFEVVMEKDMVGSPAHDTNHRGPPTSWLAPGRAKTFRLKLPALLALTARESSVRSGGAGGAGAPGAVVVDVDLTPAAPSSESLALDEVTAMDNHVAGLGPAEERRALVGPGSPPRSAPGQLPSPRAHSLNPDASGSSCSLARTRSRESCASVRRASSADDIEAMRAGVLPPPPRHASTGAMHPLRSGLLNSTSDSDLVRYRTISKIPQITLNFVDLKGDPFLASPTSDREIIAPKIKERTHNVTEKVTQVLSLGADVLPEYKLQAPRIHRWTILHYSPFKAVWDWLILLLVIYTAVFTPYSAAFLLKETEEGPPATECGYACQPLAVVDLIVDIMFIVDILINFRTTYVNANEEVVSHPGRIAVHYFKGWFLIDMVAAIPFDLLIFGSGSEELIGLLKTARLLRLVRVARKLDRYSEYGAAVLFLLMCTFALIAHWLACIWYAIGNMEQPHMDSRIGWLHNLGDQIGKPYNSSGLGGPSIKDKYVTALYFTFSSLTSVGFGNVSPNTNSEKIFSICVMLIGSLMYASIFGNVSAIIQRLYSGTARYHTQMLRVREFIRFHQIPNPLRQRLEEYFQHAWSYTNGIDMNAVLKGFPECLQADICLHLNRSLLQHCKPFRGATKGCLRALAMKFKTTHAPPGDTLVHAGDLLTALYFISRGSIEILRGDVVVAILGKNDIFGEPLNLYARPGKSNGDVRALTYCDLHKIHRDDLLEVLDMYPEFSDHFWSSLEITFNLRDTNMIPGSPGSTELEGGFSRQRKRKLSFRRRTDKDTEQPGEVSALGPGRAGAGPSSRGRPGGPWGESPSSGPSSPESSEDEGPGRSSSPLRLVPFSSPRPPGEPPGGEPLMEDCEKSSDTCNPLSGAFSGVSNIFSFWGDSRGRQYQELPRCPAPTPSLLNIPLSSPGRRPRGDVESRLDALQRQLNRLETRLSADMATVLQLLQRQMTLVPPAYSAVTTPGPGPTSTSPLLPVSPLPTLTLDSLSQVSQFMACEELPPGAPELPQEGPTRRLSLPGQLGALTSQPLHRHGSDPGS

Row | SMILES | hERG current change (%, negative = inhibition) at 1uM
1 | C=CCC(NCc1ccccc1)c1ccccc1 (stereo not shown) | 5.56%
2 | CC1(C)Cc2cccc(OCC(=O)N3CCN(c4ccccc4Cl)CC3)c2O1 | 0.729%
3 | O=C(CCCN1C(=O)c2ccccc2C1=O)N1CCCCC1 | 11.8%
4 | CN(C)Cc1c(O)ccc2occ(C(=O)c3ccccc3)c12 | -16.4%
5 | O=C(C1CCCO1)N1CCN(c2ccccn2)CC1 (stereo not shown) | 6.36%
6 | CC(C)C(=O)Nc1ccccc1N1CCN(C(=O)c2ccccc2)CC1 | 5.76%
7 | CCCc1nn2c(=O)cc(CSCC(=O)Nc3nnc(C(C)C)s3)nc2s1 | 6.33%
8 | CCOC(=O)C1CCN(C2=NC(=O)/C(=C/c3ccc(Cl)cc3)S2)CC1 | -13.1%
9 | CS(=O)(=O)N(CC(=O)Nc1ccc(Br)cc1)C1CCCCC1 | 6%
10 | COc1ccc(/C=N/NC(=O)CSc2n[nH]c(=O)[nH]c2=O)cc1 | 12.5%
11 | CCC(=O)N1CCc2cc(S(=O)(=O)CCC(=O)Nc3ccc(CC)cc3)ccc21 | 18.2%
12 | CCN(CC(=O)NCc1cccs1)C(=O)C1CC(=O)N(c2ccc(OC)cc2OC)C1 (stereo not shown) | 8.27%
13 | Clc1ccc(Cl)c(-c2nc(-c3ccncc3)no2)c1 | 15.3%
14 | COCCCn1c(SCc2nnc(-c3ccccc3)o2)nc2sc3c(c2c1=O)CCC3 | 10.3%
15 | CNC(=O)c1cc(S(=O)(=O)N(C)C)ccc1Cl | 1.15%
16 | COc1cccc(N2CC(NC(=O)c3ccc4ccccc4c3)CC2=O)c1 (stereo not shown) | 5.06%
17 | COc1ccccc1C(=O)C1CCCN(C(=O)c2ccco2)C1 (stereo not shown) | 23.9%
18 | CSCCC(NC(=O)c1ccc([N+](=O)[O-])cc1Cl)C(=O)OCC(=O)NC(=O)CN1CCCC1=O (stereo not shown) | 22.1%
19 | COc1cc(N)c(Cl)cc1C(=O)OC(C)C(=O)Nc1cccc(S(=O)(=O)N2CCOCC2)c1 (stereo not shown) | 16.1%
20 | CCC(C)NC(=O)C1CCN(S(=O)(=O)c2ccc(Br)s2)CC1 (stereo not shown) | 3.49%
21 | [Cl-].c1ccc(C[n+]2cccc3c4ccccc4ccc32)cc1 | -2.14%
22 | O=C(NC1CCCC1)c1ccc(Cl)s1 | 8.66%
23 | CCC(=O)Nc1ccc(NC(=O)CCc2ccccc2)cn1 | 10.4%

Row | SMILES | hERG current change (%, negative = inhibition) at 1uM
24 | CCCCCCCCNC(=O)C(CCC(=O)OCc1ccccc1)NC(C)=O (stereo not shown) | 6.41%
25 | Cc1cc(N2CCN(C(=O)c3cccs3)CC2)c(F)cc1[N+](=O)[O-] | -7.39%
26 | CCOC(=O)c1cnc2ccc(OC)cc2c1NCCN1CCOCC1 | -13.3%
27 | COc1ccc2c(c1)CCCN2C(N)=O | 12.3%
28 | C=CCNC(=O)CSc1ccc(Cl)cc1 | 13.7%
29 | O=C(NNC(=O)c1cc2ccccc2cc1O)Nc1ccc(F)cc1F | 7.74%
30 | O=C1CCCC/C1=C\Nc1ccc(O)cc1 | 8.6%
31 | COc1ccc(CNC(=O)CC2Sc3ccccc3NC2=O)cc1 (stereo not shown) | 15.1%
32 | CCOC(=O)C1=NOC2C(=O)N(c3ccc(Cl)cc3Cl)C(=O)C12 (stereo not shown) | 12%
33 | COc1ccc(NC(=O)CSc2nnnn2C)cc1 | 2.08%
34 | CC1CCCCC1NC(=O)CN1CCC(O)(c2ccc(F)cc2)CC1 (stereo not shown) | -0.99%
35 | Cc1ccc(C(=O)NCC(=O)OCCOc2ccccc2Cl)cc1 | 13.4%
36 | COc1ccc(Nc2nc(Nc3ccc(OC)cc3OC)nc(N3CCN(C)CC3)n2)c(OC)c1 | 4.41%
37 | O=[N+]([O-])c1ccc(OCCOCCOc2ccc([N+](=O)[O-])cc2)cc1 | 3.57%
38 | CC(C)c1ccc(O)c(NC(=S)NC(=O)c2cccnc2)c1 | 6.8%
39 | COc1cccc(C(=O)Nc2cc3c(cc2Br)OCCCO3)c1 | 7.86%
40 | CCCCC1CCC(C(=O)OC(C)C(=O)Nc2ccc(NC(C)=O)cc2)CC1 (stereo not shown) | 10.1%
41 | CC(C)(NO)/C(=N/O)c1cccs1 | -5.45%
42 | COc1ccc(-c2nc(=S)[nH][nH]2)cc1 | 11.2%
43 | O=C(Nc1ccc(Br)cc1)C1CC(c2c(F)cccc2Cl)=NO1 (stereo not shown) | 3.84%
44 | S=C(Nc1ccccc1)N1CCN(C(=S)Nc2ccccc2)CC1 | 13.9%
45 | CCOC(=O)C(=O)Nc1nc(-c2ccc3c(c2)CCN3C(=O)C2CC2)c(C)s1 | 13.8%
46 | CN1C(=O)/C(=C/c2ccc(N3CCCCCC3)o2)C(=O)NC1=S | 1.53%

Row | SMILES | hERG current change (%, negative = inhibition) at 1uM
47 | O=C(O)CCC(=O)NCc1cn(-c2ccccc2)nc1-c1cccc(Br)c1 | 9.76%
48 | COc1ccc(OC)c2[nH]c(C(=O)O)cc12 | 14.5%
49 | Cc1cccc(Nc2nnc(SCC(=O)NC3CCCc4ccccc43)s2)c1 (stereo not shown) | 2.32%
50 | CCOC(=O)C1=C(c2ccccc2)NC(=O)NC1c1ccc(OC)cc1OC (stereo not shown) | 6.74%
51 | COCCN1C(=O)C(=O)/C(=C(/O)c2ccc(S(=O)(=O)N3CCCCC3)cc2)C1c1ccc(O)c(OC)c1 (stereo not shown) | 15%
52 | S=C(NCc1ccco1)N1CCN(Cc2ccco2)CC1 | 11.1%
53 | CC1CC(C)CN(S(=O)(=O)c2ccc(F)c(C(=O)Nc3ccc(Cl)cc3F)c2)C1 (stereo not shown) | 12.6%
54 | Cc1ccc(NC(=O)Cc2noc3ccccc23)cc1 | 19.3%
55 | CS(=O)(=O)N(CC(=O)Nc1ccccc1)c1cccc(Cl)c1Cl | 9.78%
56 | CCOc1ccc(C(C)NC(=S)NCc2ccc(F)cc2)cc1 (stereo not shown) | 9.89%
57 | O=C(Nc1cccc(NC(=O)c2ccccc2Cl)c1)c1ccc(F)cc1 | 7.98%
58 | O=C(CCN1C(=O)c2cccc3cccc(c23)C1=O)Nc1ccccc1 | 9%
59 | CCOC(=O)c1sc2nc(C)nc(N3CCN(c4ncccn4)CC3)c2c1C | 9.37%
60 | CCC(C)N1C(=O)S/C(=C/c2ccc(N3CCOCC3)cc2C)C1=O (stereo not shown) | 12.5%
61 | CCn1c(-c2cc(-c3ccccc3OC)nc3ccccc23)n[nH]c1=S | 0.836%
62 | CCOC(=O)c1ccc(NC(=O)CN2C(=O)NC3(CCCCCCC3)C2=O)cc1 | 15.6%
63 | NC(=O)C1CCN(C(=O)C2CCC(=O)N(CC3CCCCC3)C2)CC1 (stereo not shown) | 7.13%
64 | Cc1ccc(C(CC(=O)O)C2CCOC(C)(C)C2)cc1 (stereo not shown) | 10.4%
65 | COc1ccccc1C(OC(=O)c1cccs1)C(=O)NCC1CCCO1 (stereo not shown) | 9.96%
66 | Cc1cccc(N2C(=O)C3CCCN3C2=S)c1C (stereo not shown) | 9.81%
67 | CCOC(=O)c1c(/N=C/c2cc(OC)cc([N+](=O)[O-])c2O)sc(C)c1C | 11.7%
68 | O=C(Nc1ccccc1[N+](=O)[O-])c1cccc(N2C(=O)CCC2=O)c1 | 12.3%
69 | CC(Cc1ccccc1)NC(=O)CCCCC(=O)NC(C)Cc1ccccc1 (stereo not shown) | 15.4%

Row | SMILES | hERG current change (%, negative = inhibition) at 1uM
70 | COc1cccc(C2CCCN2Cc2nc(CC3CC3)no2)c1 (stereo not shown) | 14.5%
71 | c1ccc(CCNc2nc(-c3ccccn3)nc3ccccc23)cc1 | -15.8%
72 | Cc1ccc(S(=O)(=O)N2CCCCC2CCNC(=O)C(=O)NCc2ccncc2)cc1 (stereo not shown) | -4.18%
73 | CCNCc1cc(Cl)c(OCc2ccccc2)c(OCC)c1.Cl | 5.68%
74 | Cc1ccc(NCc2nnc(SCC(=O)Nc3cc(C)on3)n2C)cc1 | 11.6%
75 | Cc1ccc2[nH]c(C)c(CCNC(=O)C3CCCCC3C(=O)OCC(F)(F)F)c2c1 (stereo not shown) | 6.33%
76 | O=C(CCn1cncn1)N1CCN(S(=O)(=O)c2ccc(Cl)cc2)CC1 | 12.5%
77 | CCOC(=O)Cc1csc(NC(=O)CSc2nnc(C(C)C)n2CC)n1 | 8.25%
78 | CCC(C(=O)NCCCc1ccccc1)c1ccccc1 (stereo not shown) | 2.45%
79 | CC(C)Oc1ccc(C2CC(=O)N(C)C2=O)cc1 (stereo not shown) | 15.3%
80 | CCOc1ccc(C(=O)OCC(=O)NCc2ccco2)cc1OCC | 4.2%
81 | Cc1ccc(C(C)C)c(OCC(=O)N/N=C2\CC(=O)CC(C)(C)C2)c1 | 5.93%
82 | O=C(NCCSCc1ccccc1)c1ccc(C2SCC(=O)N2Cc2ccccc2)cc1 (stereo not shown) | 2.75%
83 | CC(=O)NCCc1nc2cc(NS(=O)(=O)c3ccccc3)ccc2n1C | -4.54%
84 | Cc1ccc(NC(=O)CCC(=O)NNC(=O)COc2ccccc2)c(C)c1 | 7.32%
85 | O=C(C1CC(=O)N(c2ccc3c(c2)OCCO3)C1)N1CCCC(C(F)(F)F)C1 (stereo not shown) | 11.3%
86 | COC(=O)C1=C(C)NC(=O)/C1=C\c1cc(C)n(-c2ccccc2)c1C | 21.5%
87 | COc1cc2c(cc1OC)CN(C(=O)/C=C/c1ccc(F)cc1)CC2 | 8.63%
88 | O=C1CCN(Cc2ccccc2)S(=O)(=O)c2ccccc21 | 10.9%
89 | COC(=O)COc1ccc(S(=O)(=O)Nc2cc([N+](=O)[O-])ccc2C)cc1 | 21.1%
90 | O=C(Cc1cccc2ccccc12)N/N=C/c1ccc(O)c([N+](=O)[O-])c1 | 5.64%
91 | Cc1c(Cc2ccccc2)c(=O)oc2cc(OCC(=O)NCc3ccccn3)ccc12 | 9.49%
